From PubChem BioAssay AID1963576 (National Center for Advancing Translational Sciences (NCATS), 2024)
The whole screen tested about 46,000 compounds, of which about 60 (0.1%) were called active. About 3% were inconclusive and are not listed. Calls follow the shape of the dose curve; as a rule, active = well fitted inhibition curve with a large enough effect; inconclusive = small, poorly fitted or top-dose-only effect; inactive = no such curve, though single readings can be large or run the other way. Some of the results follow.

experiment: Primary qHTS assay for Inhibitors of ovarian cancer metastasis using an organotypic tumor microenvironment (TME) model.; also: nearly all actives have a fitted effect of over 65% in size;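 as to activity change, negative = inhibition: plate controls were DMSO wells for no effect and tomatine positive control wells for full effect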; settings: SKOV3ip1-GFP adhesion/invasion on 3D omental model, fluorescence; series mostly up to 45.8 µM; activity change, negative = inhibition: at the top concentration
Method in brief: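 qHTS, 4-pt dose (0.36-46 umol/L); SKOV3ip1-GFP, 1,200 cells/well, no FBS; primary omental fibroblast/mesothelial co-culture 48 h pre-grown; 2 h RT + 16 h 37 C; PBS wash, 4% PFA; GFP count 488/509 nm.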

Row | Compound | activity change, negative = inhibition | outcome
1 | CCCCOc1ccc(C(=O)N2CCC(c3nc4ccccc4o3)CC2)cc1 | inactive: -23% | 
2 | CCOC(=O)c1ccc(NC(=O)C2=C(C)Nc3nc(SCc4ccc(Cl)cc4)nn3C2c2ccc(C)cc2)cc1 (stereo not drawn) | inactive: 6.34% | 
3 | O=C(CCC(=O)N1CC2CCCN2c2ccccc21)NCc1ccccc1 (stereo not drawn) |  | inactive
4 | O=C(NC1CCOCC1)c1ccc(-c2cc(-c3cn[nH]c3-c3ccccn3)ccn2)cc1 | inactive: -24.8% | 
5 | CC(C)(C)c1ccc(Oc2nc3ccccn3c(=O)c2/C=C(\C#N)c2nc3ccccc3[nH]2)cc1 | inactive: 0.606% | 
6 | COc1ccc(CNC(=O)c2ccc3c(c2)N(C)C(=O)C2CCCCN32)cc1OC (stereo not drawn) | inactive: -0.306% | 
7 | COC(=O)c1sc2cccc(F)c2c1S(=O)(=O)N1CCN(c2ccccc2OC)CC1 | inactive: -25.8% | 
8 | COc1ccc(OC)c(NC(=O)CSc2nc(-c3ccccc3C)nc3cc(=O)[nH]n23)c1 | inactive: -25.2% | 
9 | O=C(Nc1ccc(SC(F)F)cc1)c1cc(-c2cccs2)on1 |  | inactive
10 | CC(NC(=O)c1nn(C)c2c1CSc1ccccc1-2)c1ccccc1 (stereo not drawn) | inactive: -10.7% | 
11 | CC1CCN(C(=O)CN2CCSc3ccccc32)CC1 | inactive: -38% | 
12 | Cc1ccc(C)c(NC(=O)CN2C(=O)CSc3nc(C)cc(C)c32)c1 |  | inactive
13 | COc1ccc(CNc2ccc3cc(S(=O)(=O)N4CCCCC4)ccc3n2)cc1 | inactive: 2.76% | 
14 | O=C(Cc1ccccc1)Nc1c(C(=O)N2CCN(c3ccc(F)cc3)CC2)oc2ccccc12 | inactive: -6.57% | 
15 | COc1cc(OC)cc(C(=O)N2CCC(c3ccncc3)CC2)c1 | inactive: 1.68% | 
16 | O=C(CCS(=O)(=O)c1cccs1)Nc1ccc(C(=O)Nc2cccc(Cl)c2)cc1 | inactive: 6.9% | 
17 | COc1ccc(N2CC(c3nc(-c4cc(OC)c(OC)c(OC)c4)no3)CC2=O)cc1Cl (stereo not drawn) |  | inactive
18 | CCC(=O)N1CCCc2cc(S(=O)(=O)N3CCC(C(=O)Nc4ccc(F)c(F)c4)CC3)ccc21 | inactive: -10.4% | 
19 | CC(=O)c1cccc(NC(=O)CCCN2C(=O)COc3ccc(C)cc32)c1 | inactive: 7.56% | 
20 | CCOc1ccc(C(=O)Nc2nnc(S(=O)(=O)N(CC)c3ccccc3C)s2)cc1 | inactive: -0.457% | 
21 | O=C(NCCc1ccccc1)c1ccc2c(c1)CCN2S(=O)(=O)c1ccc(Br)cc1 | inactive: 5.16% | 
22 | Cc1ccc(-c2cc(NC(=O)C(C)Oc3ccc(C)c(C)c3)on2)cc1 (stereo not drawn) | inactive: -20.1% | 
23 | Cc1cc(C)c2c(=O)c3c(oc2c1)C(=O)N(Cc1ccc(F)cc1)C3c1cccc(O)c1 (stereo not drawn) |  | inactive
24 | COc1ccccc1CNC(=O)CN1C(=O)CSc2c1c(C)nn2-c1ccccc1 |  | inactive

Row | Compound | activity change, negative = inhibition | outcome
25 | O=C(NCCSCc1c(F)cccc1Cl)C1CCN(S(=O)(=O)Cc2ccccc2)CC1 | inactive: -12.7% | 
26 | O=C(COc1ccc(Cl)cc1)Nc1ccccc1C(=O)OCc1cc(=O)n2ccsc2n1 | inactive: 5.31% | 
27 | CCCC(=O)NCC(c1ccc2c(c1)OCO2)N1CCOCC1 (stereo not drawn) |  | inactive
28 | CC(C)(C)CC(=O)Nc1nnc2n1CCS2 | inactive: 1.79% | 
29 | COc1ccc(Cn2ccnc2SCC(=O)Nc2ccc(C)cc2C)cc1 | inactive: -2.79% | 
30 | COc1cccc(NC(=O)CN2CCCN(S(=O)(=O)c3ccc(Br)cc3)CC2)c1 | inactive: 1.07% | 
31 | Cc1ccc(CNC(=O)CN(c2ccc(C(C)C)cc2)S(=O)(=O)c2c(C)n[nH]c2C)cc1 |  | inactive
32 | COc1ccc(S(=O)(=O)NCCc2nnc3ccc(SCC(=O)Nc4ccc(C(F)(F)F)cc4)nn23)cc1 |  | inactive
33 | Cc1ccc(C)c(N2CCN(C(=O)Cn3ncc4c(=O)oc5ccc(C)cc5c43)CC2)c1 | inactive: 2.05% | 
34 | CC(=O)c1ccc(NS(=O)(=O)c2cc3[nH]c(=O)c(=O)[nH]c3cc2C)cc1 | inactive: 1.15% | 
35 | CCc1ccc(NC(=O)c2cc(-c3cccs3)on2)cc1 |  | inactive
36 | CCOC(=O)c1c(NC(=O)/C=C/c2ccc(OC)c(OC)c2)sc(C(C)=O)c1C | inactive: -8.69% | 
37 | CCn1cc(C2N3CC4(CC)CN2CC(CC)(C3)C4=O)c2ccccc21 (stereo not drawn) | inactive: 11.3% | 
38 | O=C(CN1CCSc2ccccc21)N1CCN(c2ccccc2)CC1 | inactive: -8.01% | 
39 | Cc1cccc(-n2c3c(cc(-c4nc(-c5ccc(Cl)cc5)cs4)c2=O)C(=O)CC(C)(C)C3)c1 | inactive: 0.827% | 
40 | COC(=O)c1ccc2c(=O)n(CCCCCC(=O)NCc3ccccc3)c(=O)[nH]c2c1 | inactive: -4.56% | 
41 | CSc1ccc(CCNC(=O)CCc2c(C)nc3c(-c4ccccc4)c(C)nn3c2C)cc1 |  | inactive
42 | CCOc1ccccc1CNc1ncnc2c1nc1n2CCCC1 | inactive: 2.67% | 
43 | Cc1ccccc1Cn1nc(C)c(NC(=O)c2cc(-c3ccc(F)cc3)on2)c1C | inactive: 0.627% | 
44 | O=C(C1CCCN(S(=O)(=O)c2cccc3nonc23)C1)N1CCN(c2cccc(Cl)c2)CC1 (stereo not drawn) | inactive: 1.23% | 
45 | O=C(c1cnc2cc(-c3ccccc3)nn2c1)c1cc([N+](=O)[O-])ccc1O |  | inactive
46 | COc1cccc(/C=C/c2nc(C#N)c(N3CCCCC3)o2)c1 |  | inactive
47 | CCCn1c(=N)c(C(=O)NCc2cccnc2)cc2c(=O)n3cc(C)ccc3nc21 | inactive: 2.12% | 
48 | CCc1ccc(CSc2nc(-c3ccccc3OC)nc3c2Cc2c(CO)cnc(C)c2O3)cc1 | inactive: -4.25% | 
